Variants at the background level are over-represented here.
B1: TPR 5TU (parent)
chain: GGAUCUUCUCGAUCUAACAAAAAAGACAAAUCUGCCACAAAGCUUGAGAGCAUCUUCGGAUGCAGAGGCGGCAGCCUUCGGUGGCGCGAUAGCGCCAACGUUCUCAACUAUGACACGCAAAACGCGUGCUCCGUUGAAUGGAGUUUAUCAUG

Variants of: B1
Assay: polymerase ribozyme fitness, log enrichment relative to wild type (log ratio); higher = more active; in vitro selection for triplet polymerase activity
Method in brief: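 The heterodimeric triplet polymerase ribozyme's subunits were each mutagenized into PCR-built libraries and transcribed. Every library was selected once, in triplicate, by annealing with a biotinylated primer, the partner subunit and triplets, incubating frozen at −7 °C, gel-excising extended constructs, capturing on streptavidin beads and running RT-PCR. Input and output libraries were Illumina-sequenced, with genotypes kept only at ≥10 input reads and ≥1 read per output. Fitness, from inverse-variance-weighted replicate averages, is the base-2 logarithm of genotype enrichment over wild-type enrichment.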

| Variant | polymerase ribozyme fitness (log ratio) |
| --- | --- |
| A28G A30U G50C G83C G126U G133C | ≤ -4.2 |
| A28C U78G C96G U148G | ≤ -4.2 |
| C27U A60U A73G G92A C96G A115G U144G | ≤ -4.2 |
| A26U G42A A64G G68A A91G U102G A106G G124C G136U | ≤ -4.2 |
| A26U U53A C54G G94C G140U | ≤ -4.2 |
| C27U A47U C87G U146A C149A | ≤ -4.2 |
| A26G C32G C36A U55A U56A C87U U134A G140A | ≤ -4.2 |
| C27A A47U A106U U145A | ≤ -4.2 |
| A28G G50A U56C C63A G83A C96G | ≤ -4.2 |
| A26G C32G G59U G84C G86A A138U | ≤ -4.2 |
| C27G C38A C54U G92U U134G | ≤ -4.2 |
| A28C C32U G50C G58A C95U G117A | ≤ -4.2 |
| C27A C54G C105U | ≤ -4.2 |
| A26U C75U | -3.23 |
| C27U G83A C95U U102A G126C | -3.56 |
| C27G U44G A60G G83U U101G U104A A106G | ≤ -4.2 |
| C27G G80A C114A C116U A142C | ≤ -4.2 |
| A26U U33G A40G A60U G84C A107G A120U C149U | ≤ -4.2 |
| C27U C85G G140C | ≤ -4.2 |
| C27A G46A U53A U56G A91C A106C A110G A138G | ≤ -4.2 |
| A28C A47U C85G C93A C95U G100U | ≤ -4.2 |

| Variant | polymerase ribozyme fitness (log ratio) |
| --- | --- |
| C27G A40U G50C A73U G88U A91C C96G C123A | ≤ -4.2 |
| C27G G71A A138C A142C | ≤ -4.2 |
| C27G A49U C85U | ≤ -4.2 |
| C27U G58A C96U C116U C118G U144G | -0.836 |
| C27G U55G G88A G94U U109A C114U C123A U134C | ≤ -4.2 |
| A26G G71A C79G A122U C125G | ≤ -4.2 |
| A28C A37G C69G G133U U135G G141U | ≤ -4.2 |
| A28C G46A C93U U148C | ≤ -4.2 |
| A26U A30U A91U C116U | ≤ -4.2 |
| C27G C85A A137C | ≤ -4.2 |
| A28G U61G C95A A97U A107U | ≤ -4.2 |
| A26G C79U C93U C95A A97G A122G | ≤ -4.2 |
| A26U C27G A40G C51U A52U C76U U82A A91U G94C | ≤ -4.2 |
| C27U C79U C87G U90C C96U A121U A150G | ≤ -4.2 |
| A26G A73U G94A | ≤ -4.2 |
| A26G U90G | ≤ -4.2 |
| A28G A52C U55C C63A C87U A91U | ≤ -4.2 |
| C27U A41C A52C C54G C95G U102A | ≤ -4.2 |
| A26U G81A | -1.66 |
| A26U U55A A66C C85A C99G A107U G117U | ≤ -4.2 |
| C27U A28G A64U G84U G141C G143C | ≤ -4.2 |

| Variant | polymerase ribozyme fitness (log ratio) |
| --- | --- |
| A26G G50C G58U C85U | ≤ -4.2 |
| C27A C57A A66G G86U U90G A121G U151C | ≤ -4.2 |
| C27A A47C U56C U77A C87A C95A A97C | ≤ -4.2 |
| C27U A37U U56A C75G G83C | ≤ -4.2 |
| A28G C35U A73U | ≤ -4.2 |
| A28C C57A G80C A89U A91U C96G U127A C131G U148G | ≤ -4.2 |
| C27G A41C A106U | ≤ -4.2 |
| A28C G84A G94U C96G C108G U139C G143C | ≤ -4.2 |
| A28C G34U C93G U148G | ≤ -4.2 |
| A28G U56A G136C | ≤ -4.2 |
| A26U U53G U56G G58C G62A G67A A91G U145C U146G | ≤ -4.2 |
| A28C A49C G50A A106G A115G A142C | ≤ -4.2 |
| A26G A64U C75U C85A G140A | ≤ -4.2 |
| A26U U55A C72A G81A C131G | ≤ -4.2 |
| C27A G83C | ≤ -4.2 |
| A26U C51A G94C | ≤ -4.2 |
| A28C C36U U55A C57U C63G C95A C116A U151A | ≤ -4.2 |
| C27A A28C U61G U78A C95G | ≤ -4.2 |
| A28G A30U C32A C85A C95U A115U | ≤ -4.2 |
| C27U A40U G42C U77C G81A G83C | ≤ -4.2 |
| A26G G48C C75A C85G A110G U139C | ≤ -4.2 |

| Variant | polymerase ribozyme fitness (log ratio) |
| --- | --- |
| C27U C38U A52U C85G G88U U102G | ≤ -4.2 |
| A26U U56A U104C A106C U144C | ≤ -4.2 |
| A28C A40U G48A G58U | ≤ -4.2 |
| A28C G83A | ≤ -4.2 |
| A26U A49U A137G | ≤ -4.2 |
| A26G G34C U45A C54U C96U G141A | ≤ -4.2 |
| A26U C43U U53A G100C | ≤ -4.2 |
| A26U U55A G74A G92A A110U G136A | ≤ -4.2 |
| A28C U55G U78C U82G G86U | ≤ -4.2 |
| A28C G50A C69G U78C G88U A122G | ≤ -4.2 |
| A28G A37C C38A U56A A66C A122U U148G | ≤ -4.2 |
| C27G C43U A60C | ≤ -4.2 |
| A28C U31C U144G A147U | ≤ -4.2 |
| C27U U33G A66U A91C C93U A106G A150U | ≤ -4.2 |
| A28C A73G A110U G124U | ≤ -4.2 |
| C27U G42U G59C G84A | ≤ -4.2 |
| A26U C36U G74U C75G G124A | ≤ -4.2 |
| A28C C85A A121C G143C | ≤ -4.2 |
| C27U C57A A64U C87U U90C | ≤ -4.2 |
| A28U A29U A37G A66U A73U U78G G84A | ≤ -4.2 |
| C27A U82C U148G A150C | ≤ -4.2 |

Source: the RNAGym collection of RNA variant scans (doi:10.1073/pnas.2313332121)
